Measured values published in the supplement of paper PMC12217912.
This is one part of the list. The full chains were built here from the parent and the listed change. Inactive controls read about 0.05.

B1: TEV protease; numbered along this chain (parent)
chain: MGESLFKGPRDYNPISSSICHLTNESDGHTTSLYGIGFGPFIITNKHLFRRNNGTLVVQSLHGVFKVKDTTTLQQHLVDGRDMIIIRMPKDFPPFPQKLKFREPQREERICLVTTNFQTKSMSSMVSDTSCTFPSGDGIFWKHWIQTKDGQCGSPLVSTRDGFIVGIHSASNFTNTNNYFTSVPKNFMELLTNQEAQQWVSGWRLNADSVLWGGHKVFMVKPEEPFQPVKEATQL

Variants of: B1
Assay: raw area under fraction-flipped curve 0-4 h after induction (AUC4h, not background-subtracted), DNA-recorder readout of cleavage of the substrate (dimensionless); higher = more cleavage of the substrate by the protease variant
Details: temperature: 34 °C; time window: 0-4 h after rhamnose induction
Experimental: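 In vivo DNA recorder in E. coli TOP10(DE3) ΔrhaA at 34 °C. Each TEVp single-site mutant (parent TEVp 0) is paired with a single-site variant of the 7-mer TEVs (canonical ENLYFQ|S). The substrate sits between flexible linkers in a Bxb1-sfGFP-TEVs-SsrA fusion, so cleavage stabilises Bxb1 and speeds flipping of a recombination array, read by NGS. The value is the raw area under the fraction-flipped curve over 0-4 h after rhamnose induction (AUC4h), with ≥20 reads per time point. It is not background-subtracted; inactive controls average about 0.047.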
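Note: Bxb1 expression induced with 0.2% (w/v) L-rhamnose at OD600 near 0.5, cultures sampled hourly, flipped fraction per protease–substrate barcode pair counted by paired-end Illumina sequencing.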

Row | Variant | area with substrate ENLYFQC | area with substrate ENLYFQE | area with substrate ENLYFQF | area with substrate ENLYFQG | area with substrate ENLYFQH | area with substrate ENLYFQI | area with substrate ENLYFQK | area with substrate ENLYFQL | area with substrate ENLYFQM | area with substrate ENLYFQN | area with substrate ENLYFQQ | area with substrate ENLYFQR | area with substrate ENLYFQS | area with substrate ENLYFQT | area with substrate ENLYFQV | area with substrate ENLYFQW | area with substrate ENLYFQY | area with substrate ENLYFQP | area with substrate ENLYFQD
1 | L99R | 0.0957 | 0.079 | 0.0603 | 0.0929 | 0.0514 | 0.0596 | 0.068 | 0.0838 | 0.0646 | 0.0894 | 0.0859 | 0.0693 | 0.0881 | 0.0737 | 0.0594 | 0.0479 | 0.0778 | – | –
2 | S171C | 0.101 | 0.0453 | – | 0.0529 | 0.0647 | 0.0424 | 0.0559 | 0.0518 | – | 0.0498 | – | – | 0.0807 | – | – | 0.0456 | – | – | –
3 | S60C | 0.105 | – | 0.068 | 0.0928 | 0.0663 | 0.0602 | 0.0655 | 0.065 | 0.0896 | 0.0856 | 0.0062 | 0.0578 | 0.105 | 0.0652 | – | – | 0.0807 | 0.0571 | –
4 | I164Q | 0.0505 | – | 0.0469 | 0.0632 | 0.0482 | 0.0455 | 0.0384 | 0.0455 | 0.0624 | 0.0462 | – | 0.0512 | 0.0531 | 0.0705 | 0.0439 | 0.0299 | 0.0522 | 0.0478 | 0.0554
5 | F95A | 0.121 | – | – | 0.0839 | 0.0816 | – | – | – | 0.077 | 0.0645 | 0.0702 | 0.0471 | 0.085 | – | – | 0.0526 | 0.0717 | – | 0.058
6 | S169D | 0.064 | – | 0.0502 | 0.0782 | 0.0724 | 0.0653 | 0.0613 | 0.0623 | 0.0554 | 0.0664 | 0.0602 | 0.0596 | 0.0589 | 0.0589 | – | 0.0609 | – | 0.0702 | 0.0634
7 | A170T | 0.0559 | – | – | – | – | – | – | – | – | – | – | – | 0.0662 | – | – | – | – | – | –
8 | R106E | 0.0919 | – | 0.0537 | 0.119 | 0.0906 | 0.057 | 0.0687 | – | – | – | – | 0.0564 | 0.118 | 0.066 | – | 0.0778 | – | – | 0.0839
9 | D82H | 0.0544 | – | 0.0591 | – | 0.0564 | 0.0536 | – | 0.0555 | – | 0.0683 | – | 0.0206 | 0.0569 | 0.0563 | – | – | – | – | –
10 | S135N | 0.0718 | – | 0.0375 | 0.0729 | 0.0647 | 0.0583 | – | 0.066 | 0.0616 | 0.0878 | 0.066 | 0.0668 | 0.0813 | 0.0655 | 0.0692 | 0.0708 | 0.0513 | – | –
11 | S130V | 0.115 | – | 0.0967 | – | 0.0815 | 0.06 | 0.0661 | 0.0727 | 0.0908 | 0.0908 | – | 0.0794 | 0.1 | 0.0599 | – | – | 0.0911 | 0.0544 | 0.0755
12 | I110N | 0.0436 | – | 0.0626 | 0.0391 | 0.0625 | 0.0427 | 0.0383 | 0.0547 | 0.0303 | – | 0.069 | 0.0611 | 0.0569 | 0.0557 | – | – | 0.0566 | – | 0.0674
13 | L73Q | 0.0637 | – | – | 0.0578 | 0.0537 | – | 0.0531 | 0.0501 | 0.0586 | – | – | 0.0573 | 0.0647 | 0.0377 | 0.0641 | 0.0456 | – | 0.046 | 0.0579
14 | K98F | 0.128 | – | – | 0.0906 | 0.0853 | – | 0.0796 | 0.0536 | – | 0.0735 | – | 0.0659 | 0.0972 | 0.0629 | – | 0.0784 | 0.0709 | – | –
15 | R87H | 0.13 | – | – | – | – | 0.0539 | – | – | 0.0832 | 0.0682 | – | – | 0.105 | – | – | – | – | – | –
